Results from PubChem BioAssay AID720709 (National Center for Advancing Translational Sciences (NCATS), 2013).
Screen size: about 360,000 compounds; about 520 (0.14%) were called active. The inconclusive results got no clear call from the source; some entries with a clear call stand among them for comparison. The call rests on the fitted dose curve; in most records, active means well fitted inhibition curve with a large enough effect; inconclusive means small, poorly fitted or top-dose-only effect; inactive means no such curve, though single readings can be large or run the other way. Where the call is inconclusive, the potency comes from a doubtful curve fit.

Biological target: Rap guanine nucleotide exchange factor 3 (Homo sapiens) (UniProt O95398)
Assay: qHTS for Antagonist of cAMP-regulated guanine nucleotide exchange factor 3 (EPAC1): primary screen; further: nearly all actives have a fitted effect of over 50% in size;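 on activity change, negative = inhibition: plate controls were vehicle for no effect and positive control for full effect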
Conditions: EPAC1 GEF assay, Rap1b-BODIPY-GDP exchange fluorescence; activity change, negative = inhibition: at 115 µM (top of the series)
Potency means the concentration at half of the fitted maximal effect; tags describe the fitted curve by direction and shape.

Chain of UniProt O95398 (O95398 whole entry, looked up): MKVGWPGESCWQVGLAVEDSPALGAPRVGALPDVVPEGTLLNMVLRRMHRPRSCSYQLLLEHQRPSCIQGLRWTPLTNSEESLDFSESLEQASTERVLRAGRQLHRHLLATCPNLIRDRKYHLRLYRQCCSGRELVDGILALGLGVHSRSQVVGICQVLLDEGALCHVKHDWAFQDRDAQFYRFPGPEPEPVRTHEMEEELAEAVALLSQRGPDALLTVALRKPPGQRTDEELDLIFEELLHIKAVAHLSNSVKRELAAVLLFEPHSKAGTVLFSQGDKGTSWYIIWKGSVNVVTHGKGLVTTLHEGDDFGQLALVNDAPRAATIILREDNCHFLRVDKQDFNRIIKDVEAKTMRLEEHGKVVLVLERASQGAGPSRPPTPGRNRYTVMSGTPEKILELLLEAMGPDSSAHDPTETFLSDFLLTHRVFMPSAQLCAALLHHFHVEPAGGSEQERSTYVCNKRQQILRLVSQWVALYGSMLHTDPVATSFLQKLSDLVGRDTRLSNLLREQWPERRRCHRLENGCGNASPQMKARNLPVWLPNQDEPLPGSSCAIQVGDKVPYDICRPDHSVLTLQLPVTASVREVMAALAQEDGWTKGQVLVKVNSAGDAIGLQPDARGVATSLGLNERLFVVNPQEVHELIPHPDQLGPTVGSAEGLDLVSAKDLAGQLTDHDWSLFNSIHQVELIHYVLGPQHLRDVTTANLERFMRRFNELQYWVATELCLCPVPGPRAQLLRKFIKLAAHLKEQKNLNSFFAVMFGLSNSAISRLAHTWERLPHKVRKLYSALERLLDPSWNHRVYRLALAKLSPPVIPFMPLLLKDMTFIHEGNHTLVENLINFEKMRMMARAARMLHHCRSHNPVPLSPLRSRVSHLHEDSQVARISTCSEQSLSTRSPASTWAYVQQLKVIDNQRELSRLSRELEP

Activity change, negative = inhibition, inactive:
CN(C)CCNC(=O)C(=O)Nc1ccc2c(c1)N(S(=O)(=O)c1cccs1)CCC2 -13.9%, Cc1ccc(C2C(C#N)=C(N)SC(N)=C2C#N)c(C)c1 45.8%, CCn1c(CSCc2ccc(Cl)cc2)n[nH]c1=S 13.9%, Cc1ccc([C@H]2C[C@H](O)[C@@H](n3cc(-c4ccc(F)cc4)nn3)CN2Cc2cccs2)cc1 -0.501%, Cn1ccc(C(=O)OCC(=O)Nc2ccccc2Cl)n1 5.18%, O=C(c1cc(Cl)nc2ccccc12)N(Cc1nnc(-c2ccccc2Cl)o1)C1CC1 -15.9%, CCN(CC)c1ccc(S(=O)(=O)N2CCOCC2)cc1NC(=O)CSc1nncs1 -1.93%, Cc1ccc(C2C(C#N)=C(N)SC(N)=C2C#N)cc1 6.33%, CCOC(=O)C1CCN(CCC(=O)Nc2ccc(F)cc2)CC1 -2.27%, COC(=O)[C@@]12CCCCN1[C@H](c1ccc(-c3cccc(Cl)c3)cc1)[C@H]1C(=O)N(C)C(=O)[C@H]12 0.997%, O=C(NC(=S)NC1CCS(=O)(=O)C1)c1ccccc1 (configuration not stated) -4.81%

Potency, inconclusive:
CC(C)NC(=O)NC(=O)COC(=O)c1ccc(S(=O)(=O)Nc2ccccc2)cc1 28.2 µM [inhibitor, partial curve], COc1ccc(O)c(/C=N/NC(=S)Nc2cccc(S(=O)(=O)N(C)C)c2)c1 50.1 µM [inhibitor, partial curve], COc1cc2c3c(c1)C1(C(=O)N3C(C)(C)C=C2C)C(C#N)=C(N)Oc2cc(O)ccc21 (configuration not stated) 50.1 µM [inhibitor, partial curve], Cc1ccc([N+](=O)[O-])cc1-c1[nH]c(-c2ccc(O)c(O)c2)nc1-c1ccccc1 89.1 µM [inhibitor, single point], Cc1cccc(Cc2cnc(N3C(=N)SC(c4ccccc4)C3=O)s2)c1 (configuration not stated) 79.4 µM [inhibitor, single point], O=C(Nc1cccnc1)c1ccc(N2CCCC2)c([N+](=O)[O-])c1 2.82 µM [inhibitor, full curve, poor fit], O=C(O)c1ccccc1C(=O)Nc1ccc(-c2csc(-c3ccccc3)n2)cc1 63.1 µM [inhibitor, partial curve, poor fit], COc1ccc(CCNC(=O)c2ccc3c(=O)n4c(nc3c2)CCC4)cc1OC 39.8 µM [inhibitor, single point], COc1cc(C(=O)Nc2cc(C)nn2-c2ccccc2)cc(OC)c1OC 79.4 µM [inhibitor, single point], CCCCC(=O)Nc1nnc(/C=C/c2ccc(OC)cc2)s1 5.62 µM [inhibitor, partial curve, poor fit], CC1(c2ccccc2)NC(=O)N(CC(=O)N2CCN(S(=O)(=O)c3c(F)cccc3F)CC2)C1=O (configuration not stated) 17.8 µM [inhibitor, full curve, poor fit], Cc1ccc(-c2csc(NS(=O)(=O)c3cccc(F)c3)n2)o1 35.5 µM [inhibitor, full curve], CCc1ccc(NC(=S)Nn2cnnc2)cc1 79.4 µM [inhibitor, partial curve, poor fit], COc1ccc(-c2cc(C(=O)N3CCCCC3)c3ccccc3n2)cc1 89.1 µM [inhibitor, single point], CC(=O)c1cn(CC(=O)Nc2ccccc2F)c2ccccc12 89.1 µM [inhibitor, partial curve], CC1CN(c2nnc(NC(=O)c3ccccc3)s2)CC(C)O1 (configuration not stated) 50.1 µM [inhibitor, partial curve], O=C1/C(=C\c2ccc(O)c(O)c2)SC(=S)N1Cc1ccccc1 35.5 µM [inhibitor, full curve], Cc1[nH]n(-c2ccccc2)c(=O)c1C(=O)c1cccc(F)c1 79.4 µM [inhibitor, single point], OCCCNc1cc(-c2ccccc2)nc2cc(-c3ccc(F)cc3)nn12 79.4 µM [inhibitor, partial curve], O=C(CCCOc1ccccc1)Nc1ccc(Cl)cn1 89.1 µM [inhibitor, single point], Nc1c2c(nn1-c1ccc(F)cc1)CSC2 79.4 µM [inhibitor, partial curve, poor fit], CCOc1ccccc1Nc1ncnc2c1cnn2-c1ccccc1 10 µM [inhibitor, partial curve], O=C(COC(=O)C1CC(=O)N(Cc2ccco2)C1)c1ccc(OC(=O)c2ccco2)cc1 (configuration not stated) 56.2 µM [inhibitor, partial curve], CCC(=O)NC(c1ccc(C)cc1)c1cc([N+](=O)[O-])c2cccnc2c1O (configuration not stated) 100 µM [inhibitor, partial curve], CCOC(=O)C1=C(C)OC2(O)c3ccccc3C(=O)C12O (configuration not stated) 17.8 µM [inhibitor, full curve], COc1ccc(S(=O)(=O)N2CC(=O)Nc3ccccc32)cc1 50.1 µM [inhibitor, partial curve], COc1ccc(-c2oc(=O)c3cc(OC)c(OC)cc3c2-c2ccc3c(c2)OCO3)cc1 89.1 µM [inhibitor, single point], CC(C(=O)NN=C(c1ccccc1)c1ccccc1)N1CCCC1 (configuration not stated) 100 µM [inhibitor, single point], CC(C)N1CCc2c(sc(NC(=O)c3ccc(S(=O)(=O)N4CCc5ccccc54)cc3)c2C(N)=O)C1 20 µM [inhibitor, partial curve, poor fit], Cc1ccc(S(=O)(=O)Nc2ccc3c(c2)OCCO3)cc1 10 µM [inhibitor, full curve]

Potency, active:
O=C(O)CC/C(=C\c1ccc(N2CCCC2)c([N+](=O)[O-])c1)c1nc2ccccc2s1 44.7 µM
